Data from the supplement of paper PMC12217912.
The list shows a part of the results. Sequences were assembled here from the parent chain. Inactive controls read about 0.05.

B1: TEV protease; numbered along this chain (parent)
chain: MGESLFKGPRDYNPISSSICHLTNESDGHTTSLYGIGFGPFIITNKHLFRRNNGTLVVQSLHGVFKVKDTTTLQQHLVDGRDMIIIRMPKDFPPFPQKLKFREPQREERICLVTTNFQTKSMSSMVSDTSCTFPSGDGIFWKHWIQTKDGQCGSPLVSTRDGFIVGIHSASNFTNTNNYFTSVPKNFMELLTNQEAQQWVSGWRLNADSVLWGGHKVFMVKPEEPFQPVKEATQL

Variants of: B1
Test: raw area under fraction-flipped curve 0-4 h after induction (AUC4h, not background-subtracted), DNA-recorder readout of cleavage of the substrate (dimensionless); higher = more cleavage of the substrate by the protease variant
Details: temperature: 34 °C; time window: 0-4 h after rhamnose induction
Procedure: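 In vivo DNA recorder in E. coli TOP10(DE3) ΔrhaA at 34 °C. Each TEVp single-site mutant (parent TEVp 0) is paired with a single-site variant of the 7-mer TEVs (canonical ENLYFQ|S). The substrate sits between flexible linkers in a Bxb1-sfGFP-TEVs-SsrA fusion, so cleavage stabilises Bxb1 and speeds flipping of a recombination array, read by NGS. The value is the raw area under the fraction-flipped curve over 0-4 h after rhamnose induction (AUC4h), with ≥20 reads per time point. It is not background-subtracted; inactive controls average about 0.047.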
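Further: Bxb1 expression induced with 0.2% (w/v) L-rhamnose at OD600 near 0.5, cultures sampled hourly, flipped fraction per protease–substrate barcode pair counted by paired-end Illumina sequencing.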

Row | Variant | area with substrate ENLYFAS | area with substrate ENLYFCS | area with substrate ENLYFDS | area with substrate ENLYFES | area with substrate ENLYFIS | area with substrate ENLYFKS | area with substrate ENLYFLS | area with substrate ENLYFMS | area with substrate ENLYFPS | area with substrate ENLYFFS | area with substrate ENLYFGS | area with substrate ENLYFHS | area with substrate ENLYFNS | area with substrate ENLYFRS | area with substrate ENLYFSS | area with substrate ENLYFTS | area with substrate ENLYFWS | area with substrate ENLYFVS | area with substrate ENLYFYS
1 | MGESLFKGPRDYNPISSSICHLTNESDGHTTSLYGIGFGPFIITNKHLFRRNNGTLVVQSLHGVFKVKDTTTLQQHLVDGRDMIIIRMPKDFPPFPQKLKFREPQREERICLVTTNFQTKSMSSMVSDTSCTFPSGDGIFWKHWIQTKDGQCGSPLVSTRDGFIVGIHSASNFTNTNNYFTSVPKNFMELLTNQEAQQWVSGWRHNADSVLWGGHKVFMVKPEEPFQPVKEATQL [L205H] | 0.0682 | 0.0513 | 0.0573 | 0.0582 | 0.0706 | 0.0695 | 0.0611 | 0.0593 | 0.0575 | – | – | – | – | – | – | – | – | – | –
2 | MGESLFKGPRDYNPISSSICHLTNESDGHTTSLYGIGFGPFIITNKHLFRRNNGTLVVQSLHGVFKVKDTTTLQQHLVDGRDMIIIRMPKDFPPFPQKLKFREPQREERICLVTTNFQTKSMSSMVSDTSCTFPSGDGIFWKHWIQTKDGQCGSPLVSTRDGFIVGIHSASNFTNTNNYFTSVPKNFMELLTNQEAQQWVSGVRLNADSVLWGGHKVFMVKPEEPFQPVKEATQL [W203V] | 0.0773 | 0.0502 | 0.059 | 0.0594 | 0.052 | 0.0527 | – | 0.0592 | 0.061 | 0.0656 | 0.0552 | 0.0563 | 0.0178 | 0.0574 | 0.0591 | 0.0595 | 0.0631 | – | –
3 | MGESLFKGPRDYNPISSSICHLTNESDGHTTSLYGIGFGPFIITNKHLFRRNNGTLVVQSLHGVFKVKDTTTLQQHLVDGRDMIIIRMPKDFPPFPQKLKFREPQREERICLVTTNFQTKSMSSMVSDTSCTFPSGDGIFWKHWIQTKDGQCGSPLVSTRDGFIVGIHSASNFTNTNNYFTSVPKNFMELLTNQEAQQWVSGWRLNADSVMWGGHKVFMVKPEEPFQPVKEATQL [L211M] | 0.0703 | 0.0463 | – | 0.0569 | 0.0566 | 0.135 | 0.0461 | 0.0693 | 0.0609 | 0.0631 | – | – | 0.0592 | 0.0695 | 0.0269 | 0.0548 | 0.0622 | 0.0566 | 0.0568
4 | MGESLFKGPRDYNPISSSICHLTNESDGHTTSLYGIGFGPFIITNKHLFRRNNGTLVVQSLHGVFKVKDTTTLQQHLVDGRDMIIIRMPKDFPPFPQKLKFREPQREERICLVTTNFQTKSMSSMVSDTSCTFPSGDGIFWKHWIQTKDGQCGSPLVSTRDGFIVGIHSASNFTNTNNYFTSVPKNFMELLTNQEAQQWVSGWRLNADSNLWGGHKVFMVKPEEPFQPVKEATQL [V210N] | 0.0829 | – | – | 0.0537 | 0.0622 | 0.0569 | – | 0.0738 | 0.0571 | 0.0747 | 0.0816 | – | 0.0784 | – | – | 0.0747 | 0.0649 | 0.0579 | 0.0542
5 | MGESLFKGPRDYNPISSSICHLTNESDGHTTSLYGIGFGPFIITNKHLFRRNNGTLVVQSLHGVFKVKDTTTLQQHLVDGRDMIIIRMPKDFPPFPQKLKFREPQREERICLVTTNFQTKSMSSMVSDTSCTFPSGDGIFWKHWIQTKDGQCGSPLVSTRDGFIVGIHSASNFTNTNNYFTSVPKNFMELLTNQEAQQWVSGWRLNADSVLWGGHKVFMVKIEEPFQPVKEATQL [P222I] | 0.0611 | 0.0559 | 0.073 | 0.0748 | 0.0544 | 0.0614 | 0.0774 | – | 0.0844 | 0.0608 | 0.0525 | – | 0.0605 | 0.0401 | – | 0.0551 | 0.0386 | 0.0654 | 0.0287
6 | MGESLFKGPRDYNPISSSICHLTNESDGHTTSLYGIGFGPFIITNKHLFRRNNGTLVVQSLHGVFKVKDTTTLQQHLVDGRDMIIIRMPKDFPPFPQKLKFREPQREERICLVTTNFQTKSMSSMVSDTSCTFPSGDGIFWKHWIQTKDGQCGSPLVSTRDGFIVGIHSASNFTNTNNYFTSVPKNFMELLTNQEAQQWVSGWRLNADSVLWGGHKVFMVLPEEPFQPVKEATQL [K221L] | 0.0558 | – | 0.0377 | 0.0774 | 0.0558 | 0.0671 | – | 0.0563 | 0.0576 | 0.0727 | – | – | 0.0666 | 0.0617 | 0.0443 | 0.0732 | 0.0591 | – | –
7 | MGESLFKGPRDYNPISSSICHLTNESDGHTTSLYGIGFGPFIITNKHLFRRNNGTLVVQSLHGVFKVKDTTTLQQHLVDGRDMIIIRMPKDFPPFPQKLKFREPQREERICLVTTNFQTKSMSSMVSDTSCTFPSGDGIFWKHWIQTKDGQCGSPLVSTRDGFIVGIHSASNFTNTNNYFTSVPKNFMELLTNQEAQQWVSGWRLNADSVLWGGHKVFMVSPEEPFQPVKEATQL [K221S] | 0.0573 | – | – | 0.0538 | 0.0556 | 0.0558 | 0.0649 | 0.0459 | 0.0545 | 0.0767 | – | 0.0616 | 0.0609 | – | – | – | 0.0941 | 0.0645 | –
8 | MGESLFKGPRDYNPISSSICHLTNESDGHTTSLYGIGFGPFIITNKHLFRRNNGTLVVQSLHGVFKVKDTTTLQQHLVDGRDMIIIRMPKDFPPFPQKLKFREPQREERICLVTTNFQTKSMSSMVSDTSCTFPSGDGIFWKHWIQTKDGQCGSPLVSTRDGFIVGIHSASNFTNTNNYFTSVPKNFMELLTNQEAQQWVSGWRLNADSVLWGDHKVFMVKPEEPFQPVKEATQL [G214D] | 0.044 | 0.0696 | 0.0446 | 0.0469 | 0.0517 | 0.0818 | 0.0704 | 0.0587 | 0.0529 | 0.0517 | – | 0.0551 | 0.0465 | – | – | 0.0514 | – | 0.03 | –
9 | MGESLFKGPRDYNPISSSICHLTNESDGHTTSLYGIGFGPFIITNKHLFRRNNGTLVVQSLHGVFKVKDTTTLQQHLVDGRDMIIIRMPKDFPPFPQKLKFREPQREERICLVTTNFQTKSMSSMVSDTSCTFPSGDGIFWKHWIQTKDGQCGSPLVSTRDGFIVGIHSASNFTNTNNYFTSVPKNFMELLTNQEAQQWVSGWRLNADSVLWRGHKVFMVKPEEPFQPVKEATQL [G213R] | 0.0505 | 0.059 | 0.0424 | 0.055 | 0.0554 | 0.0496 | 0.052 | – | 0.0541 | 0.0664 | 0.0574 | – | – | 0.0543 | 0.0661 | 0.0552 | – | – | 0.0581
